This note sets out measurements from the RNAGym collection of RNA variant scans (doi:10.7554/elife.90254).

First the molecules themselves.
B1: LINE1-mini (parent)
chain: GGCAGAGCUCAACACAGCGUGGCAAAGUGGCUGUGGCUAGACUGCC

Read counts are not given, so values of variants with three or more changes are uncertain.

This series covers variants of B1. In words: self-cleavage, relative activity (ratio to wild type); higher = more cleavage; in vitro, sequencing; the parent is a self-cleaving ribozyme.
Regarding GGCUGAGCUCAACACAGCGUGGCAGCGUGGCUGUGGCUAGACUGCC [A4U A25G A26C], the self-cleavage amounted to 0.07. Regarding GGCUGGGCUCAACUCAGCGUGGCAAUGUGGCUGUGGCUAGACUGCC [A4U A6G A14U A26U], the self-cleavage was 0.04. Then GGCUGAGCUCAACACAGCGUGGCCAAGCGGCUGUGGUUAGACUGCC [A4U A24C U28C C37U], with 0.1. Take GGCUGCGCUCAACACAGCGUGGCAAAGUGGCUGUGUUUAGACUGCC [A4U A6C G36U C37U]: the self-cleavage was 0.03. Then GGCGGAGCUCAACACAGCGUGGCAAAGUGGCAUUGGCUAGACUGCC [A4G U32A G33U], with 0.18; and GGCGGAGCUCAACACAACGUGGCCAAGUGGCUGUGGCUAGACUGCC [A4G G17A A24C], with 0.06; and GGCGGAGCUCAACACAGCGUGCCAAAGCGGCUUCGGCUAGACUGCC [A4G G22C U28C G33U U34C], with 0.09. Then GGCGGAGCUCAACACAGCGUGGCAAAGUGGCAGUGGCUUGACUGCC [A4G U32A A39U], with 0.56; and GGCGGAGCUCAACACAGCGUGGCAAAAUGGCUGUGUCUAGACUGCC [A4G G27A G36U], with 0.06.

For GGCUGAGCUCAUCACCGCGUGGCAAUGUGGCUGUGGCAAGACUGGC [A4U A12U A16C A26U U38A C45G], the self-cleavage was 0.02. For the variant GGCUGAGAUCAACACUGCGUGGCAAAGUGGCUGUGGCUAGGCUGCC [A4U C8A A16U A41G], the self-cleavage was 0.02. Under GGCGGAGCUCAACACAGCGUGGCAAAGAGGCUGUGGCUAAACUGCC [A4G U28A G40A] stands 0.03; under GGCGGAGCUCAACACAUCGUGUCUAAGUGGCUGUGGCUUGACUGCC [A4G G17U G22U A24U A39U], 0.05.

For GGCUGAGCUCAACCUAGCGUGGUAAAGUGGCUGUGGCUAGACUGCC [A4U A14C C15U C23U], the self-cleavage amounted to 0.1. On to GGCUGAGGAUAACACAGCGUGGCAAAGUGGCUGUGGCUAGACUGGC [A4U C8G U9A C10U C45G], for which the self-cleavage was found to be 0.07. Then GGCGGAGCACAACACAGCGUGGCAAAGUGGUAGUGGCUAGACUGCC [A4G U9A C31U U32A], with 0.19. Then GGCUGAGCUCACCGCAGCGUGGCAAAGGGGCUGUGGCUAGACUGCC [A4U A12C A14G U28G], with 0. Then GGCUGCGCUCAACACAGCGUGGCAAAGUGUCUGUGGCUAUACAGCC [A4U A6C G30U G40U U43A], with 0.01; and GGCGGAGCACAAAUCAGCGUGGCAAAGUGGCUGUGGCUAGACUGCC [A4G U9A C13A A14U], with 0.37. Consider GGCGGAGCCCAACACAGCGUGGCCACGUGGCUGUCGUUAGACUGCC [A4G U9C A24C A26C G35C C37U], for which the self-cleavage was determined as 0. Turning to GGCUGAGCUCAACACGGCGUGGCAAAGUGGCUGUGGAUAGACUGCC [A4U A16G C37A], the self-cleavage turned out to be 0.17. In the case of GGCUGAGCUCAACACAGCGUGGCAAUGUGGCUGGGGCGAGGCUGCC [A4U A26U U34G U38G A41G], the self-cleavage came out at 0.03. For the variant GGCUGAGCUCAACUCAGCCUGGCAAAGUGGCUGUGGCUAGAAUGCC [A4U A14U G19C C42A], the self-cleavage turned out to be 0.09. Then GGCGGAGCUCAACACAGCGUGUUAAAGUGGAUGUGGCUGUACUGCC [A4G G22U C23U C31A A39G G40U], with 0.22; and GGCUGAGCUCAACACCUCGUGGCAUAGUGGCAGGGGCUAGACUGCC [A4U A16C G17U A25U U32A U34G], with 0.05. Then GGCUGAGCUCAACACGGCGUGGCAAACUGGCUGUGGCUACACUGCC [A4U A16G G27C G40C], with 0.01. Under GGCGGAGCUCAACACAGCGAGGCAAAUUGGCUGUGGCUAGACUGCC [A4G U20A G27U] stands 0.57; under GGCGGAGCACAACACAGCGUGGCAAAGUGGCUGUGGCUAGAUUGCC [A4G U9A C42U], 0.18; under GGCUGCGCUAAACACAGCGCGGCAAAGGGGCUGUGGCUAGACUGCC [A4U A6C C10A U20C U28G], 0.01. Take GGCUGUGCUCGCCAUAGCGCGGCAAAGUGGCUGUCGCUCGACUGCC [A4U A6U A11G A12C C15U U20C G35C A39C]: the self-cleavage was 0.01. Under GGCGGAGCUCAACACAGCGUGGCAAAGAGGGUGUGGCUAGACUGCC [A4G U28A C31G] stands 0.09; under GGCGGAGCUCAACACAGCGUGGCAAAGGGGCUGUGGCUAGACUUCC [A4G U28G G44U], 0.03.

Take GGCGGAGCUCAACACAGCCUGGCAAAGUGGCUGUGGCUAGCCUGCC [A4G G19C A41C]: the self-cleavage worked out at 0.02.

For the variant GGCUGAGCUCGACACAGCGUGGCAAAGUGGCUGUGGCUAGACUGCU [A4U A11G C46U], the self-cleavage worked out at 0.05. Consider GGCGGAGCCCAACACAGCGUGGCAAAGUGGAUGUGGCUAGACCGAC [A4G U9C C31A U43C C45A], for which the self-cleavage worked out at 0.01. Turning to GGCGGAGCUCAACACAGCAUGGCAAAGUGGCUAUAGCUAGACUUCC [A4G G19A G33A G35A G44U], the self-cleavage worked out at 0.02. With GGCGGAGCACAACCCAGCGUGGCACAGUGGCUGUGCCUAGACUGCC [A4G U9A A14C A25C G36C], the self-cleavage stood at 0.05. Under GGCUGAGCUCAACUCAGCGUGGCAAGGUGGCUGCGGCAAGACUGGC [A4U A14U A26G U34C U38A C45G] stands 0.03; under GGCGGAGCUCAACACAGCAUGGCAAAGUGGCUGUGGAUAGACUGCC [A4G G19A C37A], 0.04; under GGCUGAGAUCAACACAGCGUGGCAAAGAGGCUGUGGCUAGACUGCC [A4U C8A U28A], 0.33. Under GGCUGAGAUCAACACAGCGUGGCAAAGUGGCUGUGGGAAGACUGCC [A4U C8A C37G U38A] stands 0.02; under GGCGGAGCUCAACACAGCGUGUCAAAGUAGCUGUGCCUAGACUCCC [A4G G22U G29A G36C G44C], 0.17; under GGCGGAGCUCAACACAGCGUGGCAAAGUGGCUGUUGCUAGACUGCA [A4G G35U C46A], 0.03.

In the case of GGCGGAGCACAACACAGCGUGGCAAAGUGGCUGUGGCUAGACUGCA [A4G U9A C46A], the self-cleavage was found to be 0.27.

Turning to GGCGGAGCUCAACACAUCGUGGCAAAGUGGCUGUGGCGAGACUGCC [A4G G17U U38G], the self-cleavage was 0.38. Then GGCGGAGCUCAACACAGCGUGGCAAAGUGGCUGGGCCUAGACUGCC [A4G U34G G36C], with 0.02; and GGCUGAGGUCAACACAGCGUGGCAAAGUGGUUGUGGCUAGACUGCC [A4U C8G C31U], with 0.02. Under GGCGGAGCUCAACACAUCGUGGCAAAGUGGCUGUGGCUGGACUGCC [A4G G17U A39G] stands 0.12; under GGCGGAGCUCAACACAGCGUCGCAAAGUGGCUGUGGCAAAACUGCC [A4G G21C U38A G40A], 0.01; under GGCGGAGCUCAACACAGCGUGGCAAAGGGGUUUUGGCUAGACGGCC [A4G U28G C31U G33U U43G], 0.08. As to GGCGGAGCUCAACACAGCGUUGCAAGGUGGCUGUGGCUAGACUGCC [A4G G21U A26G], the self-cleavage turned out to be 0.3.

Turning to GGCUGAGCUCAACACAGCGUGGCUAAGUGGCUGUAGCUAGACUGCC [A4U A24U G35A], the self-cleavage turned out to be 0.08.

As for GGCGGAGCUCAACACAGCGUGGCAAAGUGGCUGUAGCUAGACUGCU [A4G G35A C46U], the self-cleavage was determined as 0.15. Under GGCGGAGCUCAACACAGCGUAUCAAAGUGGCUGUGGCUAGACUGGC [A4G G21A G22U C45G] stands 0.05. Then GGCUGAGGUCAACACAACGUGGAAAAGUGGCUGUGGCUCGACUGGC [A4U C8G G17A C23A A39C C45G], with 0.05; and GGCGGAGCUCAACACAUCGUGGCAAAGUUGCUGUGGCUAGAAUGCC [A4G G17U G29U C42A], with 0.14.
